# Measured values from the supplement of paper PMC8728848.
# This is one part of the list.
# B1: MSMEG3662-2a (Mycobacterium smegmatis), A0QYH7_MYCS2 (protein)
# chain: MGDTLTAGQKLERGGSLQSGNGAYTLTLQDDGNLVLYARDKAVWSTGTNGQDVVRAEVQTDGNFVLYTAEKPVWHTDTKGKKEVKLVLQDDRNLVLYAKDGPAWSSKTDTTEPPPPAPEPEKEAEVAPAAAEEAAPAPVAEPAPAEPAPAAPPPAPPAPRTYTVVSGDTLWAIAERFYGDGSKYQQIADASGIANPDLIHPGQVLTIP
# Columns and labels:
# Experiment in all cases: glycan array binding signal (z-score within array); higher = stronger binding
# Conditions in all cases: glycan notation: IUPAC condensed, linker removed
# Neu5Ac(a2-3)GalNAc = target: Neu5Ac(a2-3)GalNAc
# Procedure, shortened: (§1)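 Glycan array data were curated from 3228 arrays in the Consortium for Functional Glycomics database and kept only where the protein sequence was available. Glycan names were converted to IUPAC-condensed notation, and columns mapping to the same glycan were averaged. The binding signal is a within-array Z-score, averaged across arrays of the same protein sequence at different concentrations or buffers and across linkers. Negative Z-scores can be read as non-binding.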
# [1] = target: Neu5Ac(a2-3)GalNAc(b1-4)GlcNAc
# Procedure, shortened: as §1
# [2] = target: Neu5Ac(a2-3)[GalNAc(b1-4)]Gal(b1-4)Glc
# Procedure, shortened: as §1
# [3] = target: Neu5Ac(a2-3)[GalNAc(b1-4)]Gal(b1-4)GlcNAc
# Procedure, shortened: as §1
# [4] = target: Neu5Ac(a2-3)[GalNAc(b1-4)]Gal(b1-4)GlcNAc(b1-3)GalNAc
# Procedure, shortened: as §1
# [5] = target: Neu5Ac(a2-3)[Neu5Ac(a2-6)]GalNAc
# Procedure, shortened: as §1
# Neu5Ac(a2-6)Gal = target: Neu5Ac(a2-6)Gal
# Procedure, shortened: as §1
# [6] = target: Neu5Ac(a2-6)Gal(b1-3)GlcNAc(b1-3)[Gal(b1-4)GlcNAc(b1-6)]Gal(b1-4)Glc
# Procedure, shortened: as §1
# Neu5Ac(a2-6)Gal(b1-4)Glc = target: Neu5Ac(a2-6)Gal(b1-4)Glc
# Procedure, shortened: as §1
# [7] = target: Neu5Ac(a2-6)Gal(b1-4)GlcNAc
# Procedure, shortened: as §1
# [8] = target: Neu5Ac(a2-6)Gal(b1-4)GlcNAc(b1-2)Man
# Procedure, shortened: as §1
# [9] = target: Neu5Ac(a2-6)Gal(b1-4)GlcNAc(b1-2)Man(a1-3)Man(b1-4)GlcNAc(b1-4)GlcNAc
# Procedure, shortened: as §1
# [10] = target: Neu5Ac(a2-6)Gal(b1-4)GlcNAc(b1-2)Man(a1-3)[Gal(b1-4)GlcNAc(b1-2)Man(a1-6)]Man(b1-4)GlcNAc(b1-4)GlcNAc
# Procedure, shortened: as §1
# [11] = target: Neu5Ac(a2-6)Gal(b1-4)GlcNAc(b1-2)Man(a1-3)[GlcNAc(b1-2)Man(a1-6)]Man(b1-4)GlcNAc(b1-4)GlcNAc
# Procedure, shortened: as §1
# [12] = target: Neu5Ac(a2-6)Gal(b1-4)GlcNAc(b1-2)Man(a1-3)[GlcNAc(b1-4)][Neu5Ac(a2-6)Gal(b1-4)GlcNAc(b1-2)Man(a1-6)]Man(b1-4)GlcNAc(b1-4)GlcNAc
# Procedure, shortened: as §1
# [13] = target: Neu5Ac(a2-6)Gal(b1-4)GlcNAc(b1-2)Man(a1-3)[Man(a1-6)]Man(b1-4)GlcNAc(b1-4)GlcNAc
# Procedure, shortened: as §1
# [14] = target: Neu5Ac(a2-6)Gal(b1-4)GlcNAc(b1-2)Man(a1-3)[Neu5Ac(a2-3)Gal(b1-4)GlcNAc(b1-2)Man(a1-6)]Man(b1-4)GlcNAc(b1-4)GlcNAc
# Procedure, shortened: as §1
# [15] = target: Neu5Ac(a2-6)Gal(b1-4)GlcNAc(b1-2)Man(a1-3)[Neu5Ac(a2-6)Gal(b1-4)GlcNAc(b1-2)Man(a1-6)]Man(b1-4)GlcNAc(b1-4)GlcNAc
# Procedure, shortened: as §1
# [16] = target: Neu5Ac(a2-6)Gal(b1-4)GlcNAc(b1-2)Man(a1-3)[Neu5Ac(a2-6)Gal(b1-4)GlcNAc(b1-2)Man(a1-6)]Man(b1-4)GlcNAc(b1-4)[Fuc(a1-6)]GlcNAc
# Procedure, shortened: as §1
# [17] = target: Neu5Ac(a2-6)Gal(b1-4)GlcNAc(b1-2)Man(a1-6)Man(b1-4)GlcNAc(b1-4)GlcNAc
# Procedure, shortened: as §1
# [18] = target: Neu5Ac(a2-6)Gal(b1-4)GlcNAc(b1-2)Man(a1-6)[Gal(b1-4)GlcNAc(b1-2)Man(a1-3)]Man(b1-4)GlcNAc(b1-4)GlcNAc
# Procedure, shortened: as §1
# [19] = target: Neu5Ac(a2-6)Gal(b1-4)GlcNAc(b1-2)Man(a1-6)[GlcNAc(b1-2)Man(a1-3)]Man(b1-4)GlcNAc(b1-4)GlcNAc
# Procedure, shortened: as §1
# [20] = target: Neu5Ac(a2-6)Gal(b1-4)GlcNAc(b1-2)Man(a1-6)[Man(a1-3)]Man(b1-4)GlcNAc(b1-4)GlcNAc
# Procedure, shortened: as §1
# [21] = target: Neu5Ac(a2-6)Gal(b1-4)GlcNAc(b1-2)[Neu5Ac(a2-6)Gal(b1-4)GlcNAc(b1-4)]Man(a1-3)[GlcNAc(b1-4)][Neu5Ac(a2-6)Gal(b1-4)GlcNAc(b1-2)[Neu5Ac(a2-6)Gal(b1-4)GlcNAc(b1-6)]Man(a1-6)]Man(b1-4)GlcNAc(b1-4)GlcNAc
# Procedure, shortened: as §1
# [22] = target: Neu5Ac(a2-6)Gal(b1-4)GlcNAc(b1-2)[Neu5Ac(a2-6)Gal(b1-4)GlcNAc(b1-4)]Man(a1-3)[GlcNAc(b1-4)][Neu5Ac(a2-6)Gal(b1-4)GlcNAc(b1-4)Man(a1-6)]Man(b1-4)GlcNAc(b1-4)GlcNAc
# Procedure, shortened: as §1
# [23] = target: Neu5Ac(a2-6)Gal(b1-4)GlcNAc(b1-2)[Neu5Ac(a2-6)Gal(b1-4)GlcNAc(b1-6)]Man(a1-6)[Neu5Ac(a2-6)Gal(b1-4)GlcNAc(b1-2)Man(a1-3)][GlcNAc(b1-4)]Man(b1-4)GlcNAc(b1-4)GlcNAc
# Procedure, shortened: as §1
# [24] = target: Neu5Ac(a2-6)Gal(b1-4)GlcNAc(b1-3)Gal(b1-3)GlcNAc
# Procedure, shortened: as §1
# [25] = target: Neu5Ac(a2-6)Gal(b1-4)GlcNAc(b1-3)Gal(b1-4)GlcNAc
# Procedure, shortened: as §1
# [26] = target: Neu5Ac(a2-6)Gal(b1-4)GlcNAc(b1-3)Gal(b1-4)GlcNAc(b1-2)Man(a1-3)[Neu5Ac(a2-6)Gal(b1-4)GlcNAc(b1-3)Gal(b1-4)GlcNAc(b1-2)Man(a1-6)]GalNAc
# Procedure, shortened: as §1
# [27] = target: Neu5Ac(a2-6)Gal(b1-4)GlcNAc(b1-3)Gal(b1-4)GlcNAc(b1-3)Gal(b1-4)GlcNAc
# Procedure, shortened: as §1
# [28] = target: Neu5Ac(a2-6)Gal(b1-4)GlcNAc(b1-3)Gal(b1-4)GlcNAc(b1-3)Gal(b1-4)GlcNAc(b1-2)Man(a1-3)[Neu5Ac(a2-6)Gal(b1-4)GlcNAc(b1-3)Gal(b1-4)GlcNAc(b1-3)Gal(b1-4)GlcNAc(b1-2)Man(a1-6)]GalNAc
# Procedure, shortened: as §1
# [29] = target: Neu5Ac(a2-6)Gal(b1-4)GlcNAc(b1-3)Gal(b1-4)GlcNAc(b1-3)GalNAc
# Procedure, shortened: as §1
# [30] = target: Neu5Ac(a2-6)Gal(b1-4)GlcNAc(b1-3)Gal(b1-4)GlcNAc(b1-3)[Neu5Ac(a2-6)Gal(b1-4)GlcNAc(b1-3)Gal(b1-4)GlcNAc(b1-6)]GalNAc
# Procedure, shortened: as §1
# [31] = target: Neu5Ac(a2-6)Gal(b1-4)GlcNAc(b1-3)Gal(b1-4)GlcNAc(b1-6)[Gal(b1-3)]GalNAc
# Procedure, shortened: as §1
# [32] = target: Neu5Ac(a2-6)Gal(b1-4)GlcNAc(b1-3)Gal(b1-4)[Fuc(a1-3)]GlcNAc(b1-3)Gal(b1-4)[Fuc(a1-3)]GlcNAc
# Procedure, shortened: as §1
# [33] = target: Neu5Ac(a2-6)Gal(b1-4)GlcNAc(b1-3)GalNAc
# Procedure, shortened: as §1
# [34] = target: Neu5Ac(a2-6)Gal(b1-4)GlcNAc(b1-3)[Neu5Ac(a2-6)Gal(b1-4)GlcNAc(b1-6)]GalNAc
# Procedure, shortened: as §1
# [35] = target: Neu5Ac(a2-6)Gal(b1-4)GlcNAc(b1-6)GalNAc
# Procedure, shortened: as §1
binder,measurement,setting,value
B1,glycan array binding signal (z-score),Neu5Ac(a2-3)GalNAc,-0.06
same,glycan array binding signal (z-score),[1],-0.096
same,glycan array binding signal (z-score),[2],-0.219
same,glycan array binding signal (z-score),[3],-0.16
same,glycan array binding signal (z-score),[4],-0.025
same,glycan array binding signal (z-score),[5],-0.161
same,glycan array binding signal (z-score),Neu5Ac(a2-6)Gal,-0.121
same,glycan array binding signal (z-score),[6],-0.087
same,glycan array binding signal (z-score),Neu5Ac(a2-6)Gal(b1-4)Glc,-0.068
same,glycan array binding signal (z-score),[7],-0.128
same,glycan array binding signal (z-score),[8],-0.192
same,glycan array binding signal (z-score),[9],-0.194
same,glycan array binding signal (z-score),[10],-0.144
same,glycan array binding signal (z-score),[11],-0.06
same,glycan array binding signal (z-score),[12],-0.13
same,glycan array binding signal (z-score),[13],-0.164
same,glycan array binding signal (z-score),[14],0.058
same,glycan array binding signal (z-score),[15],-0.046
same,glycan array binding signal (z-score),[16],-0.158
same,glycan array binding signal (z-score),[17],-0.146
same,glycan array binding signal (z-score),[18],-0.119
same,glycan array binding signal (z-score),[19],-0.129
same,glycan array binding signal (z-score),[20],-0.14
same,glycan array binding signal (z-score),[21],-0.144
same,glycan array binding signal (z-score),[22],0.058
same,glycan array binding signal (z-score),[23],-0.171
same,glycan array binding signal (z-score),[24],-0.094
same,glycan array binding signal (z-score),[25],-0.118
same,glycan array binding signal (z-score),[26],0.002
same,glycan array binding signal (z-score),[27],-0.108
same,glycan array binding signal (z-score),[28],0.293
same,glycan array binding signal (z-score),[29],0.076
same,glycan array binding signal (z-score),[30],-0.017
same,glycan array binding signal (z-score),[31],-0.189
same,glycan array binding signal (z-score),[32],-0.129
same,glycan array binding signal (z-score),[33],-0.179
same,glycan array binding signal (z-score),[34],-0.088
same,glycan array binding signal (z-score),[35],-0.052
